± gives the standard error. The list shows a part of the results.
These sequences were tested against terminal deoxynucleotidyl transferase (calf thymus) (UniProt P06526) (assay: TdT poly-dT extension signal (Cy3 hybridisation fluorescence, uncapped minus capped) (fluorescence a.u.); higher = more efficient initiation of TdT extension). Details: initiator chemistry: 2'-O-methyl-RNA, free 3'-OH (5'-tethered via HEG linker).
Experimental: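 All mono- to pentamer 2'-O-methyl-RNA initiators were made by photolithographic in situ synthesis (3'-NPPOC amidites, reverse direction, free 3'-OH) on glass on a hexaethylene glycol linker. Each was made in uncapped and DMTr-dT-capped versions, about 11 replicates each. Arrays were extended with calf thymus TdT (0.2 U/uL), 100 uM dTTP and 0.25 mM CoCl2 for 120 min at 37 C, hybridised with an rA18-Cy3 probe and scanned at 532 nm. The value is the mean uncapped minus the mean capped signal. IDs are written 3'->5' and are reversed to 5'->3'; all nucleotides are 2'-OMe.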

Chain of UniProt P06526 (P06526 whole entry): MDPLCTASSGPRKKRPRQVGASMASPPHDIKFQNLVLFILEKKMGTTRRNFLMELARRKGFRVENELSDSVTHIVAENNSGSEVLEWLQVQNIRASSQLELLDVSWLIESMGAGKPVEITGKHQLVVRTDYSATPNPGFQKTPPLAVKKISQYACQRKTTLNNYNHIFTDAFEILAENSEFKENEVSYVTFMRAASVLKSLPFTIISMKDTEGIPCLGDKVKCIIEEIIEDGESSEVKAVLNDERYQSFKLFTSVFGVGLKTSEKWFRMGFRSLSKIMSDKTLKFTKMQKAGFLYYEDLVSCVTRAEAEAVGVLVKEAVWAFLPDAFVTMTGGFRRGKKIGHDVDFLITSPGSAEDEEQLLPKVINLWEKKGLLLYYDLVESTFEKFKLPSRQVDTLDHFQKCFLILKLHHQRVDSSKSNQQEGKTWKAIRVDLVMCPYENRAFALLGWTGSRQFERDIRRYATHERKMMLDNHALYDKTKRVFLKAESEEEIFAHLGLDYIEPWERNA

Row | Sequence | TdT poly-dT extension signal
1 | UGUUU | 193 ± 14
2 | UUUAA | 472 ± 39
3 | GAGUC | 564 ± 43
4 | CUACU | 259 ± 24
5 | UCACU | 353 ± 44
6 | CUACG | 220 ± 22
7 | CGGA | 599 ± 30
8 | GAGCU | 459 ± 69
9 | CCGAG | 550 ± 53
10 | AAGC | 1020 ± 75
11 | GGACC | 526 ± 56
12 | ACUC | 497 ± 55
13 | CCGGU | 424 ± 52
14 | UUCUG | 203 ± 12
15 | ACGG | 375 ± 17
16 | CCUUC | 341 ± 33
17 | CGUGA | 389 ± 45
18 | CACGU | 388 ± 16
19 | UUGGA | 385 ± 46
20 | CGACC | 476 ± 32
21 | CGAAG | 535 ± 52
22 | CUUGC | 1070 ± 49
23 | UCCGG | 282 ± 20
24 | GAAC | 734 ± 42

Row | Sequence | TdT poly-dT extension signal
25 | GUAGC | 874 ± 90
26 | GACGG | 319 ± 29
27 | GACGA | 600 ± 69
28 | AUGAU | 308 ± 22
29 | GGUGG | 322 ± 32
30 | CGCG | 333 ± 16
31 | UAGA | 749 ± 76
32 | UAAG | 401 ± 44
33 | AGUCA | 380 ± 51
34 | CACCU | 335 ± 26
35 | UUGAU | 338 ± 24
36 | GGCC | 494 ± 40
37 | GGUG | 210 ± 18
38 | GCUGA | 489 ± 37
39 | CGGGA | 762 ± 120
40 | GUUGU | 356 ± 39
41 | UCCAU | 530 ± 40
42 | UGCAC | 803 ± 100
43 | GGGC | 1320 ± 130
44 | UGAUU | 284 ± 20
45 | AGCUU | 340 ± 23
46 | GCAUU | 349 ± 28
47 | GAAAA | 1340 ± 160
48 | UAUCU | 237 ± 9.4

Row | Sequence | TdT poly-dT extension signal
49 | GGAUA | 441 ± 22
50 | UCAGA | 821 ± 37
51 | ACUAG | 369 ± 32
52 | UAACU | 308 ± 19
53 | AGACU | 327 ± 17
54 | CUUUU | 188 ± 10
55 | UCUCG | 247 ± 23
56 | GUCCG | 216 ± 15
57 | GGUGC | 1450 ± 72
58 | AGGAG | 436 ± 25
59 | UGGGC | 1020 ± 64
60 | CUGGA | 571 ± 53
61 | GCGAC | 660 ± 38
62 | AUUGC | 975 ± 53
63 | UGUUG | 98.8 ± 15
64 | ACUAU | 368 ± 48
65 | AUCUC | 438 ± 30
66 | CCGUG | 247 ± 13
67 | AUAUG | 172 ± 15
68 | GGCGU | 492 ± 54
69 | CUUCU | 228 ± 14
70 | AGGGU | 440 ± 31
71 | GGAGU | 517 ± 31
72 | GCGGG | 285 ± 16

Row | Sequence | TdT poly-dT extension signal
73 | AUAGU | 410 ± 26
74 | UUACA | 292 ± 35
75 | CCCUU | 351 ± 26
76 | GGCCG | 218 ± 17
77 | AAUU | 299 ± 19
78 | AAGUU | 326 ± 30
79 | CGGCA | 308 ± 14
80 | UCUAU | 351 ± 55
81 | CGACU | 361 ± 55
82 | GAGUG | 253 ± 36
83 | CCUCU | 222 ± 19
84 | UUGU | 284 ± 14
85 | CGGCG | 295 ± 16
86 | CUCUC | 542 ± 36
87 | CGGG | 309 ± 20
88 | UAUCG | 210 ± 23
89 | UAAUU | 334 ± 24
90 | GUAG | 390 ± 58
91 | GAUCC | 473 ± 23
92 | AGGU | 429 ± 28
93 | UACCA | 407 ± 46
94 | CCUAA | 722 ± 48
95 | UUUCU | 226 ± 34
96 | ACCUC | 492 ± 33

Row | Sequence | TdT poly-dT extension signal
97 | AGGA | 553 ± 43
98 | UCACC | 396 ± 31
99 | AACCA | 421 ± 35
100 | UCAUU | 329 ± 26
101 | GGUCA | 350 ± 38
102 | CUCAC | 655 ± 34
103 | UCUU | 320 ± 16
104 | CGCUG | 264 ± 25
105 | AGAU | 437 ± 58
106 | AACA | 387 ± 36
107 | GCCUG | 255 ± 13
108 | AAAUA | 608 ± 42
109 | AAUAA | 788 ± 62
110 | CGCAG | 506 ± 44
111 | GCUA | 576 ± 29
112 | GCUUC | 403 ± 23
113 | ACUAA | 675 ± 43
114 | AUAU | 271 ± 21
115 | AACCU | 353 ± 24
116 | GCUG | 237 ± 21
117 | CCGGC | 929 ± 50
118 | AUGAG | 369 ± 35
119 | UCUG | 199 ± 16
120 | GCAUG | 279 ± 20

Row | Sequence | TdT poly-dT extension signal
121 | UCAUA | 657 ± 58
122 | ACGCC | 647 ± 68
123 | GUGGA | 530 ± 40
124 | UGCU | 380 ± 54
125 | CUCU | 284 ± 19
126 | AAAUU | 324 ± 30
127 | AAAAG | 572 ± 40
128 | GACU | 307 ± 20
129 | GCCAC | 704 ± 100
130 | AUGCG | 228 ± 24
131 | CUCCU | 368 ± 24
132 | UUAGC | 1120 ± 85
133 | ACGUU | 296 ± 22
134 | UUUCC | 311 ± 18
135 | GGGGG | 472 ± 39
136 | UUACU | 207 ± 24
137 | AUGAC | 596 ± 49
138 | UGUUC | 338 ± 23
139 | UCAGU | 529 ± 32
140 | UAGUC | 536 ± 22
141 | CAAGG | 388 ± 18
142 | UCGAC | 720 ± 77
143 | AUAC | 414 ± 24
144 | AAAC | 622 ± 50

Row | Sequence | TdT poly-dT extension signal
145 | UACUG | 262 ± 20
146 | AGAUG | 206 ± 39
147 | UUUGA | 308 ± 24
148 | AGUCU | 332 ± 42
149 | ACAG | 580 ± 55
150 | UUACG | 190 ± 16
151 | CACCG | 313 ± 30
152 | GUGCG | 273 ± 17
153 | UAUUG | 134 ± 22
154 | AUACG | 244 ± 16
155 | AUAAA | 898 ± 66
156 | UCUGC | 954 ± 69
157 | CUCCC | 434 ± 28
158 | UCCGU | 482 ± 36
159 | AACUG | 319 ± 43
160 | CCAUA | 666 ± 42
161 | UGCAG | 452 ± 32
162 | GCCA | 256 ± 36
163 | CCGUC | 563 ± 68
164 | GCGG | 394 ± 28
165 | AUUU | 178 ± 16
166 | UGACU | 251 ± 16
167 | GGCAC | 881 ± 64
168 | UCAAA | 1120 ± 90

Row | Sequence | TdT poly-dT extension signal
169 | CAGCC | 768 ± 69
170 | AUGCA | 396 ± 33
171 | UGGGG | 363 ± 14
172 | CGAA | 788 ± 63
173 | AACGU | 394 ± 33
174 | GAACU | 287 ± 24
175 | UAUCA | 299 ± 20
176 | GCAAU | 567 ± 29
177 | GCCGG | 264 ± 21
178 | CCUCA | 370 ± 25
179 | CCGA | 620 ± 55
180 | AAUCG | 207 ± 16
181 | CUUG | 189 ± 21
182 | CCGAU | 556 ± 57
183 | UCGU | 489 ± 51
184 | GAUG | 206 ± 16
185 | GCGCA | 351 ± 19
186 | CAUAA | 765 ± 72
187 | AGCCG | 260 ± 29
188 | AGCGU | 476 ± 20
189 | CACUC | 527 ± 54
190 | GUACA | 331 ± 37
191 | GGAU | 436 ± 25
192 | GCCAG | 491 ± 83

Row | Sequence | TdT poly-dT extension signal
193 | GCUGG | 253 ± 27
194 | CAGA | 689 ± 73
195 | CAAUA | 708 ± 37
196 | GUCAA | 824 ± 73
197 | GGGCU | 356 ± 31
198 | UCCUA | 556 ± 67
199 | AACUC | 504 ± 22
200 | AUCGG | 267 ± 23
201 | UAAGA | 819 ± 37
202 | CCCGA | 600 ± 30
203 | UUAC | 418 ± 28
204 | CCCCG | 227 ± 18
205 | UACUA | 554 ± 29
206 | CCGUA | 545 ± 40
207 | UGCGU | 417 ± 45
208 | CUAG | 343 ± 28
209 | UGUU | 250 ± 21
210 | CCACU | 262 ± 20
211 | UUAAA | 1000 ± 81
212 | GGGAA | 734 ± 40
213 | AGUUG | 160 ± 18
214 | UUGUU | 230 ± 10
215 | CGAGU | 433 ± 32
